Assay results reported in PubChem BioAssay AID1466 (National Center for Advancing Translational Sciences (NCATS), 2008).
In all, about 200,000 compounds went through this assay and about 10 (0.005%) were called active. Inconclusive means that the source gave no clear call. Such entries were picked first, then a sample of the others. Calls follow the shape of the dose curve; as a rule, active = well fitted inhibition curve with a large enough effect; inconclusive = small, poorly fitted or top-dose-only effect, or effect the other way, or another doubt; inactive = no such curve, though single readings can be large or run the other way. No potency is given beside an inconclusive call; the fits are too rough.

Target: Lysosomal alpha-glucosidase (Homo sapiens) (UniProt P10253)
Test: qHTS Assay for Inhibitors of Human alpha-Glucosidase as a Potential Chaperone Treatment of Pompe Disease;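 as to activity change, negative = inhibition: plate controls were uninhibited enzyme wells for no effect and no-enzyme background for full effect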
Conditions: purified human GAA, 4-MU-alpha-glucoside fluorescence; activity change, negative = inhibition: at 76.9 µM (top of the series) unless noted
Method in brief: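 Fluorogenic assay: 4 nM human alpha-glucosidase with 400 uM 4-methylumbelliferyl-alpha-D-pyranoside in 50 mM citrate/phosphate, 0.005% Tween-20, pH 5.0, 20 min at room temperature. Compounds tested up to 77 uM; AC50 from Hill fits.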
Potency is read from the fitted curve at half-maximal effect; tags tell the direction and shape of the fitted curve.

SMILES	Potency	activity change, negative = inhibition
COc1cc2c(cc1OC)C(C)N(C(=O)c1cc3n(n1)C(C(F)(F)F)CC(c1ccco1)N3)CC2 (centres undefined)	inconclusive [inhibitor, partial curve, poor fit]	–
Cc1cc(NCc2ccccc2)nc(-c2ccccc2O)n1	inconclusive [inhibitor, single point]	–
CN1C(=O)Cc2cc(S(=O)(=O)N3CCOCC3)ccc21	inconclusive [inhibitor, single point]	–
C=CCn1c(COc2cccc3cccnc23)nnc1SCC(=O)OC	–	inconclusive: -16.1% [inhibitor]
CCCn1c(=N)c(C(=O)NCC2CCCO2)cc2c(=O)n3cccc(C)c3nc21 (centres undefined)	inconclusive [activator, single point]	–
COC(=O)c1ccccc1NC(=S)NC(=O)C1CCCCC1	inconclusive [inhibitor, single point]	–
COc1ccccc1C1OC(c2cccc([N+](=O)[O-])c2)=NN1C(C)=O (centres undefined)	inconclusive [inhibitor, single point]	–
CC1(C)CC(NC(=O)CCC2CCCC2)CC(C)(C)N1	inconclusive [inhibitor, partial curve]	–
Cc1cc(N2CCC(N(C)C3CCCC3)CC2)nc2cc(O)ccc12	inconclusive [activator, single point]	–
O=C(NCC1CCCO1)c1cc(S(=O)(=O)N2CCCC2)c(Cl)cc1Cl (centres undefined)	–	inconclusive: 15.4% [activator]
Cc1ccc(C(=O)CSc2nnc(Cn3nnc4ccccc43)n2C)cc1	inconclusive [activator, full curve, poor fit]	–
CCc1ccc(-c2cc(C(=O)NCCCn3ccnc3)c3ccccc3n2)s1	inconclusive [activator, partial curve]	–
CC1CCc2nc3ccc(S(=O)(=O)N4CCC(C(=O)NC5CCCC5)CC4)cc3c(C(=O)O)c2C1 (centres undefined)	inconclusive [inhibitor, partial curve, poor fit]	–
O=C(NCCCN1CCOCC1)c1ccc2c(=O)n(CCc3ccccc3)c(=O)[nH]c2c1	inconclusive [activator, partial curve]	–
N#C/C(=N\Nc1ccc(S(=O)(=O)N2CCOCC2)cc1)C(N)=S	–	inconclusive: -19.8% [inhibitor]
COc1ccc(S(=O)(=O)N(C)CC(=O)N2CCN(C)CC2)cc1C	inconclusive [inhibitor, full curve]	–
Cc1ccc(-c2ccc(/C=C3\C(=O)ON=C3c3ccccc3)o2)c([N+](=O)[O-])c1	–	inconclusive: 20.4% [activator]
CCCOc1ccc(N2C(=O)CC(N3CCN(c4nc5ccccc5s4)CC3)C2=O)cc1 (centres undefined)	inconclusive [inhibitor, single point]	–
O=C(O)CCCCCN1C(=O)C(O)=C(C(=O)/C=C/c2ccccc2)C1c1ccccc1[N+](=O)[O-] (centres undefined)	–	inconclusive: 15.1% [activator]
COc1ccccc1/C=C/C=N/n1c(-c2cc(C)[nH]n2)n[nH]c1=S	inconclusive [inhibitor, partial curve, poor fit]	–
CC(C)CC(C(=O)NC(C)(C)C)N(Cc1cccs1)C(=O)c1snc(C(N)=O)c1N (centres undefined)	–	inconclusive: -15.1% [inhibitor]
CCc1ccc(-c2nn(-c3ccccc3)cc2CSC(=N)N)cc1	inconclusive [inhibitor, single point]	–

SMILES	Potency	activity change, negative = inhibition
CN(C)c1ccc(-c2noc(C3CCN(S(=O)(=O)c4cccc(C(=O)O)c4)CC3)n2)cc1	inconclusive [inhibitor, single point]	–
CCCCNC(=O)N1CCN(Cc2ccc(F)cc2)CC1	–	inconclusive: 14.4% [activator]
COc1ccc(NC(=O)/C=C/c2ccc(Br)o2)cn1	inconclusive [inhibitor, single point]	–
C=CCNC(=O)c1ccc(Sc2ccc(C)cc2)c([N+](=O)[O-])c1	–	inconclusive: -15.1% [inhibitor]
CCCCNCCCOc1ccc(C)cc1Br	inconclusive [inhibitor, single point]	–
CCCC/C(=N\NC(=O)c1ccc(Br)o1)c1ccccc1	inconclusive [inhibitor, single point]	–
Cc1ccc(C2CC(c3cccc(C)c3)n3nc(N)nc3N2)cc1 (centres undefined)	inconclusive [inhibitor, partial curve]	–
CC1(C)Cc2c(C#N)c(OCC(=O)c3ccc(Cl)cc3)nc(-c3ccco3)c2CO1	inconclusive [inhibitor, single point]	–
C=CCNc1nc(Cl)nc(Nc2ccc(OC)cc2OC)n1	–	inconclusive: 15.4% [activator]
Cc1cc(SCc2cc(=O)n3ccsc3n2)nc2ccccc12	inconclusive [inhibitor, single point]	–
Cc1noc(C)c1CCC(=O)N1CCCC(CCC(=O)NCc2ccc(F)c(F)c2)C1 (centres undefined)	–	inconclusive: 8.22% [activator]
Cc1ccc(Nc2nc(CSc3nnc(-c4cccnc4)n3-c3ccccc3C)cs2)cc1	inconclusive [activator, single point]	–
C=CCN1C(=O)c2oc3ccccc3c(=O)c2C1c1ccc(O)c(OC)c1 (centres undefined)	inconclusive [activator, single point]	–
Cc1[nH]c2ccccc2c1C1=NNC(=Nc2ccc(F)cc2)SC1	inconclusive [inhibitor, single point]	–
Cc1c(Br)c(=O)oc2c(Br)c(O)ccc12	inconclusive [activator, partial curve]	–
COc1ccc2oc(-c3cccc(NC(=O)CSc4ccc(Cl)cc4)c3)nc2c1	inconclusive [activator, single point]	–
CCOC(=O)C1=C(CNCc2ccccc2Cl)NC(=O)NC1c1cccc([N+](=O)[O-])c1 (centres undefined)	inconclusive [inhibitor, single point]	–
O=C(Nc1ccc(Cl)cn1)C1CCCN1S(=O)(=O)c1ccccc1 (centres undefined)	inconclusive [inhibitor, single point]	–
Brc1ccc2nc(-c3cccs3)c(NCC3CCCO3)n2c1 (centres undefined)	inactive	–
Cc1ccc(N(C)S(=O)(=O)c2cccc(C(=O)Oc3ccc4c(C)cc(=O)oc4c3)c2)cc1	inconclusive [activator, partial curve]	–
OCCC1CN(Cc2nc3ccccc3[nH]2)CCN1C1CCCC1 (centres undefined)	–	inconclusive: 6.19% [activator]
Cc1cccc(NC2SC(=O)NC2=O)c1 (centres undefined)	inconclusive [inhibitor, full curve, poor fit]	–

SMILES	Potency	activity change, negative = inhibition
COc1cccc(C(c2nnnn2Cc2ccco2)N2CCN(Cc3ccccc3)CC2)c1OC (centres undefined)	inconclusive [inhibitor, single point]	–
COc1ccc(CCN(Cc2cc3cccc(C)c3[nH]c2=O)C(=O)N2CCCC2)cc1OC	inconclusive [inhibitor, partial curve]	–
CC(c1ccon1)N(C)Cc1c(C(=O)N(C)Cc2ccccc2)nc2ccccn12 (centres undefined)	inconclusive [inhibitor, full curve, poor fit]	–
Cc1ccc(NC(=O)CCn2cnc3ccccc3c2=O)cc1	–	inconclusive: 15.8% [activator]
O=C(Cc1ccc([N+](=O)[O-])cc1)NCC1CCCO1 (centres undefined)	–	inconclusive: 15.4% [activator]
CCc1c(C)nc2ncnn2c1N1CCN(S(=O)(=O)c2ccc(OC)cc2)CC1	–	inconclusive: 18.5% [activator]
CCCCCn1c(N2CCN(c3cccc(Cl)c3)CC2)nc2c1c(=O)[nH]c(=O)n2C	inconclusive [inhibitor, single point]	–
O=c1ccc2cc3c4c(c2o1)CCCN4CCC3	inconclusive [activator, partial curve]	–
COc1ccc(N2CC(C(=O)N/N=C/c3c[nH]c4ccccc34)CC2=O)cc1 (centres undefined)	inconclusive [inhibitor, single point]	–
COc1cccc(-c2ccc(C#N)c(SCC(=O)NCc3ccco3)n2)c1	–	inconclusive: 15.9% [activator]
CC(C)CNS(=O)(=O)c1ccc(CCC(=O)NCc2cccnc2)cc1	–	inconclusive: -21.1% [inhibitor]
C(=N\N1CCN(C2c3ccccc3-c3ccccc32)CC1)/c1ccncc1	inactive	–
CCCCOc1ncnc2c1[nH]c1ccc(C)cc12	inconclusive [inhibitor, single point]	–
CC(C)(C)c1cc(-c2nc(N)nc(N)n2)cc(C(C)(C)C)c1	inconclusive [inhibitor, single point]	–
CCCn1c(O)c(N=NC(=O)c2cccnc2)c2cc(Br)ccc21	inconclusive [inhibitor, partial curve]	–
CC1=C(C(=O)Nc2ccccc2)C(c2ccc(C(C)C)cc2)N2C(=O)CSC2=N1 (centres undefined)	inconclusive [inhibitor, partial curve]	–
Cc1nc(CSc2nnc(C)s2)cs1	inconclusive [inhibitor, single point]	–
O=c1c(-c2ccccc2)cnc2n1CCS2	–	inconclusive: 11.5% [activator]
C(=N\Nc1nc2ccccc2[nH]1)/c1c[nH]c2ccccc12	inactive	–
Nc1n[nH]c2c1C1(CCCCC1)Cc1ccccc1-2	inconclusive [inhibitor, partial curve]	–
